This is one part of the list. The energies were worked out here from pooled read counts, against the library average; single values are noisy.
target: T1, Pho4 (S. cerevisiae) (UniProt P07270); assay: relative binding free energy (BET-seq); higher = weaker binding; conditions: reference: library average
T1 sequence: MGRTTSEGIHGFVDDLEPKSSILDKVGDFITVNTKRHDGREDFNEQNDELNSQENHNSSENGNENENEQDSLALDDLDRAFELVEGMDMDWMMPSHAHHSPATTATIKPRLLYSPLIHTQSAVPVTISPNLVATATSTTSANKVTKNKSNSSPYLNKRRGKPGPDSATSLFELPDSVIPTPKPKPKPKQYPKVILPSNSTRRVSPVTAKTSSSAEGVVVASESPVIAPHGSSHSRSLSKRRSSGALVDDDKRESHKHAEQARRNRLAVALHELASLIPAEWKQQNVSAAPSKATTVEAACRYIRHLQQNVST

Sequence	relative binding free energy [kcal/mol]
ATTGACACGTGCGGTG	-0.19
GGCATCACGTGAGTGT	0.34
GGTGTCACGTGTCGAG	-0.01
TGTGGCACGTGCGGAT	-0.05
GTTTACACGTGGAGCG	0.12
CGTTTCACGTGATTAT	0.4
TATCTCACGTGCGTGG	0.16
TATTGCACGTGGTTCG	-0.1
GCTTGCACGTGGGTAT	-0.06
GAGTTCACGTGACTGG	0.36
TGTGTCACGTGAAGTG	0.41
AGTGACACGTGGAATG	-0.09
TGATGCACGTGTTTCG	-0.05
CTCGTCACGTGTGAGG	0.13
GTTTTCACGTGTGACA	0.38
AAGGACACGTGGTGGA	-0.06
AAGATCACGTGGAGGG	0.21
ACTGGCACGTGGTTTG	-0.15
GGTGCCACGTGTCATG	-0.04
GAGTTCACGTGGGCGA	0.22
TAGTCCACGTGTGATG	0.07
GGTTGCACGTGGAGCA	0.04
TTTAACACGTGGATGA	-0.03
TATTACACGTGGGAGA	-0.03
GGTGACACGTGTGATA	0.07
GATGCCACGTGGTGGA	-0.13

Sequence	relative binding free energy [kcal/mol]
AGAAGCACGTGGGTTG	-0.26
GTTAGCACGTGGAGCG	-0.1
TACCGCACGTGTGTGT	-0.08
TCTGTCACGTGTTATT	0.04
CGTCACACGTGATTGG	0.26
GGTGCCACGTGCGGTG	-0.15
CTTGTCACGTGTAGCT	0.24
TGGGACACGTGGGCGC	-0.19
GGGCGCACGTGAGTCG	0.14
TTGTACACGTGTGACG	0.15
TGGCACACGTGTGGGT	0.08
AGATCCACGTGTAGTG	0.15
TGTGGCACGTGGTCTC	-0.12
TGTTGCACGTGTCGGT	0.08
TGGATCACGTGTGCAT	0.1
TACGGCACGTGGGGCT	-0.26
GCGGGCACGTGAATGT	0.19
GTATGCACGTGCAGTT	-0.03
GTCGGCACGTGCGGCG	-0.1
TGGGGCACGTGATGTC	0.06
TGGAACACGTGAGGGC	0.27
TTGTACACGTGACAGT	0.15
GTAGGCACGTGCGGAG	-0.14
TCTGACACGTGGCTGG	0.15
GGGGTCACGTGCTATA	0.05
GTAAGCACGTGAGGCG	0.05

Sequence	relative binding free energy [kcal/mol]
AATGGCACGTGGCAGT	-0.23
ATAGTCACGTGTATAG	0.01
CTGTACACGTGGCGGG	0.1
CGAGGCACGTGATTAT	0.17
CAGTGCACGTGTTGGT	-0.04
GCAAGCACGTGTGTGT	-0.04
TGCTACACGTGTGGAG	0.06
AGGAACACGTGTGTAG	0
ATGACCACGTGGGGTT	-0.22
TTTTACACGTGTAAGG	0.2
GAATCCACGTGTGGTG	0.16
TGGGTCACGTGGAGCA	0.13
AGTCTCACGTGTTAGA	0.18
GGGATCACGTGGCGTT	0.17
GTTGTCACGTGATCAA	0.41
TGGCGCACGTGGCAGT	-0.13
GGTGGCACGTGAGATA	0.11
ATAAACACGTGGAGTG	-0.02
GGAATCACGTGGCGTA	0.07
TATTGCACGTGGGGCC	-0.1
ATATTCACGTGGGCTG	0.09
AGGGGCACGTGTGCGT	-0.16
ATAATCACGTGGCGTT	-0.06
TTTTGCACGTGATTAG	0.08
TTCGACACGTGTGAGG	0.18
TTTATCACGTGCGTTT	0.13

Sequence	relative binding free energy [kcal/mol]
TGTTCCACGTGGCTTG	-0.03
AGTTGCACGTGGGGTG	-0.15
GAATTCACGTGCTGGT	0.29
TGTTACACGTGAGTTG	0.24
AGTTACACGTGGGGAG	0.01
AACATCACGTGGAGGT	0.14
CGAGGCACGTGGTGGA	-0.21
TATGGCACGTGTAGTG	-0.09
GTTTACACGTGGGAGA	0.06
TATTGCACGTGGAGCA	0.11
GGTGACACGTGGGATA	-0.02
AGGTTCACGTGAAGGG	0.39
TGTCTCACGTGGATTT	0.1
AAGCGCACGTGGTGAG	-0.14
GTTTCCACGTGATAGT	0.21
TTAATCACGTGAGAGT	0.24
TGTCGCACGTGATAAG	0.04
ATAAACACGTGTGGTA	0.01
GGATTCACGTGTAACG	0.35
CAGGTCACGTGGTTAG	0.01
GTAGTCACGTGTAGGC	0.33
CTAGGCACGTGGTAGG	-0.2
TAATGCACGTGGTGTC	-0.19
GAATTCACGTGGTTTA	0.28
GAAGGCACGTGGGAAT	-0.23
GGTGACACGTGAATTT	0.22

Sequence	relative binding free energy [kcal/mol]
CGAGACACGTGATGGT	0
TATTTCACGTGGCGAG	0.21
AGTGTCACGTGCGGGA	-0.03
ATGTTCACGTGTAGTA	0.11
CATTTCACGTGTAGCG	0.42
TTGGTCACGTGGAGTA	0.18
GCGTGCACGTGGTTGT	-0.05
GTGGTCACGTGGAGCG	0.16
TATTCCACGTGGTAAT	0.2
ATGGGCACGTGTGGCA	-0.04
GGTGGCACGTGAGGCC	0.14
GTTTCCACGTGTATAT	0.12
AGTGTCACGTGAAGGC	0.3
CATGTCACGTGAGATT	0.4
TTTTACACGTGCTTAA	0.03
AGGAACACGTGTTTTG	-0.01
CTTAGCACGTGGTGTT	-0.2
TAGGTCACGTGACGAT	0.35
ATGTTCACGTGCAGGT	0.29
CTTTTCACGTGGCTTT	0.06
TTGCTCACGTGAGATA	0.43
TATGCCACGTGGCGTG	-0.15
CATGACACGTGTGGTG	-0.06
GTGTTCACGTGAATCG	0.53
TTGACCACGTGGGAAG	0.08
TGATGCACGTGAATGG	0.25

Sequence	relative binding free energy [kcal/mol]
GGATGCACGTGGTTCA	0.04
TTCTGCACGTGATTGC	0.17
TGCAGCACGTGGTGCT	0.03
CGGTTCACGTGGTTTG	0.26
TATAACACGTGATGGA	0.08
TTATTCACGTGGATCA	0.26
GGAAGCACGTGGGGGA	-0.09
AATGTCACGTGTAGGC	0.1
ATGTTCACGTGTGATA	0.29
TAGTTCACGTGTCAAG	0.26
GTGCTCACGTGTGCGG	0.34
TAGATCACGTGTGAGG	0.19
TTTGACACGTGGTTTG	0
TGTGCCACGTGATAGT	0.08
GTTTTCACGTGGAGGG	0.23
GGTCTCACGTGGATGG	0.32
TTAAGCACGTGAGGTC	0.09
TTCTTCACGTGTAGAT	0.4
TTATCCACGTGTTATG	-0.09
TGACGCACGTGGGAGT	-0.2
ATTGGCACGTGTAGTT	0.04
GGTAGCACGTGAGGGA	0.2
ATGTTCACGTGGGCAA	0.13
TAGGGCACGTGATATG	-0.01
GTGAACACGTGGTTGC	0.18
GTGAGCACGTGAGTGT	-0.03

Sequence	relative binding free energy [kcal/mol]
AATCGCACGTGTTGAG	0.11
ATGTCCACGTGCGGTG	0.03
AGTCTCACGTGGGCAT	0.13
TTAAGCACGTGTGCTG	-0.1
TTAGGCACGTGTGAGG	0.03
AATTGCACGTGAGATG	0.24
TGCAGCACGTGTCTGG	-0.01
ATACTCACGTGGGTTT	0.07
CTTGGCACGTGGATCA	0.04
GGGGGCACGTGGCGAG	-0.23
TACAGCACGTGTGAGG	0.02
TCAGGCACGTGAGGGT	0.05
CGCTTCACGTGGGTGT	0.04
GTTTACACGTGCGGTC	0.26
ATGTTCACGTGAGGAC	0.44
GTTTACACGTGGTATT	0.08
GTAGGCACGTGGTTGA	-0.14
GGGCGCACGTGTGAGA	-0.02
TGGGCCACGTGGCGGA	-0.17
TAGGGCACGTGAAGTT	0.16
CTGCACACGTGGGGGG	-0.14
TAGTACACGTGGCAGG	0.06
ATTGCCACGTGGAAGT	-0.01
GAAATCACGTGTGGGT	0.27
GATTTCACGTGCGTAG	0.4
GTTAACACGTGAAGTG	0.28

Sequence	relative binding free energy [kcal/mol]
GGTTGCACGTGCGTGT	0.1
TGCGTCACGTGTAGAA	0.13
GTTGTCACGTGAATTA	0.35
ATCTGCACGTGTGTAG	0.07
GGGGGCACGTGCACAG	-0.13
GGGTCCACGTGCTTAG	0.14
GATGGCACGTGAATTG	0.2
TGGGGCACGTGTTGGC	-0.02
CCGTTCACGTGGGGTT	0.16
AGCGGCACGTGTAGGT	-0.04
CTCGGCACGTGGGCGG	-0.21
ATTGCCACGTGATTGT	0.03
ACGTTCACGTGGGTTA	0.11
GGTGACACGTGGTTGA	0.08
TATTTCACGTGCGGGG	0.29
CGGGGCACGTGATTTG	0.01
GGGGACACGTGAGGCG	0.18
AGTCTCACGTGTGTTT	0.14
GGGGGCACGTGATTTC	0.07
AGTTACACGTGTTATT	0.11
ATGTTCACGTGTTTTT	0.36
CGGGACACGTGGTAAG	-0.03
TATTGCACGTGGTCGT	-0.14
TGCGGCACGTGTGCAG	0.03
AAGGCCACGTGGGGGG	-0.09
TTATTCACGTGGACGT	0.31

Sequence	relative binding free energy [kcal/mol]
TGGTGCACGTGCACTG	0
GTACGCACGTGGGTAA	-0.21
CGCGGCACGTGAGGAG	0.03
GTGTTCACGTGAGTAT	0.46
ATCCTCACGTGTGTTG	0.3
TGGTTCACGTGAGTTT	0.46
AGACGCACGTGGAGTG	-0.2
AGGTGCACGTGGCTTA	-0.15
GGAAGCACGTGGAGTT	-0.15
GTCAACACGTGTGGTG	0.17
GGTGGCACGTGTTTGG	0.01
TATAGCACGTGAGGTG	0.15
TGTGGCACGTGTCTGG	-0.06
GACTACACGTGGTGTT	0.06
GTGTTCACGTGGGAAA	0.19
GTGATCACGTGTTTAT	0.03
GAGTGCACGTGACTGG	0.05
TTAGGCACGTGAATAG	0.17
GGTAACACGTGTTATA	-0.02
GGGTGCACGTGCGAAT	0.08
GCGAGCACGTGGGGGC	-0.19
AATTACACGTGGGTAC	0.2

Source: the BET-seq Pho4 binding data (Le et al. 2018)
